Test results taken from PubChem BioAssay AID2147 (National Center for Advancing Translational Sciences (NCATS), 2009).
Screen size: about 230,000 compounds; about 3,600 (1.6%) were called active. This list was built around the results that the source calls inconclusive (neither active nor inactive); the mix of calls is not that of the screen. The call rests on the fitted dose curve; in most records, active means well fitted inhibition curve with a large enough effect (not every such curve was filed as active); inconclusive means small, poorly fitted or top-dose-only effect, or another doubt; inactive means no such curve, though single readings can be large or run the other way. A potency beside an inconclusive call is a rough fit, not a confirmed value.

Biological target: Lysine-specific demethylase 4E (Homo sapiens) (UniProt B2RXH2)
Experiment: qHTS Assay for Inhibitors of Human Jumonji Domain Containing 2E (JMJD2E)
Settings: JMJD2E catalytic domain, FDH-coupled NADH fluorescence (FDH is formaldehyde dehydrogenase); series mostly up to 57.1 µM
Further: nearly all actives have a fitted effect of over 50% in size.
Potency means the concentration at half of the fitted maximal effect; tags describe the fitted curve by direction and shape.

Chain of UniProt B2RXH2 (B2RXH2 whole entry, looked up, the tested form may be a part): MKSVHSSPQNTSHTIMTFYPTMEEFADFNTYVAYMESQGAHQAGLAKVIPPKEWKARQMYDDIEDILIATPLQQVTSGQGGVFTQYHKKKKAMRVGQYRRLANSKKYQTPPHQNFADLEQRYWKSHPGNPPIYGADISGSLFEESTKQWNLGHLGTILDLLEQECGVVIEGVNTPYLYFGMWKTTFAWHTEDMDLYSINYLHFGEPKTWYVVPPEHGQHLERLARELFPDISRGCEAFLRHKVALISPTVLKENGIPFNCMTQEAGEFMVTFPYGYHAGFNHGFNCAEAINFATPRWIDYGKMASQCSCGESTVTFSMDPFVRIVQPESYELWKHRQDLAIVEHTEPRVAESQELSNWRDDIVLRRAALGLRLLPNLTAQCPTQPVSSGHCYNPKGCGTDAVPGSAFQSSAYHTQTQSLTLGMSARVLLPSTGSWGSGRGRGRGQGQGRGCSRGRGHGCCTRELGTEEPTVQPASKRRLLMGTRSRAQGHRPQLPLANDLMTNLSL

| SMILES | Potency |
| --- | --- |
| CCOC(=O)c1[nH]c2ccccc2c1NC(=O)CC(C)C | inconclusive: 35.5 µM [inhibitor, partial curve] |
| CC(C)(C)c1cc(=O)n2c(C#N)c(C#N)nc2[nH]1 | inconclusive: 28.2 µM [inhibitor, partial curve] |
| Cc1cc(-c2sccc2C)nc(-n2cccc2)n1 | inconclusive: 15.8 µM [inhibitor, partial curve] |
| Cc1nnc(SCCn2c(N3CCN(C)CC3)nc3c2c(=O)[nH]c(=O)n3C)s1 | inactive |
| CCCCOC(=O)CSc1nc(N)c(C#N)c(-c2ccc(OC)cc2)c1C#N | inconclusive: 39.8 µM [inhibitor, single point] |
| COc1cccc2cc3c(=O)oc4ccccc4c3nc12 | inconclusive: 25.1 µM [inhibitor, partial curve] |
| Cc1ccc(/C=N/N=C2/NC(=O)C(CC(=O)Nc3ccccc3)S2)o1 (configuration not stated) | inactive |
| CCOC(=O)C(C(=O)Nc1ccccn1)C1CCCCC1 (configuration not stated) | inconclusive: 35.5 µM [inhibitor, single point] |
| O=C(NCc1ccccc1)c1ccc(S(=O)(=O)N2CCCC2)cc1 | inactive |
| COc1ccc(-c2cn3ccccc3n2)cc1OC | inconclusive: 28.2 µM [inhibitor, partial curve] |
| CCOc1ccc(-c2nc3n(c(=O)c2C#N)CCS3)cc1 | inconclusive: 25.1 µM [inhibitor, partial curve] |
| S=C1NCN(Cc2ccco2)CN1 | inactive |
| Nc1c(NC2CCCCC2)c2ccccc2oc1=O | inconclusive: 39.8 µM [inhibitor, single point] |
| CCCOc1ccc(-c2nnc(N)s2)cc1 | inconclusive: 25.1 µM [inhibitor, single point] |
| COCc1c(C(=O)OCC(=O)NCCN2C(=O)CSC2=O)oc2ccccc12 | inconclusive: 28.2 µM [inhibitor, partial curve] |
| O=C(Nc1ccc(-c2cn3c(n2)SCC3)cc1)c1ccc2ccccc2n1 | inactive |
| O=C(N/N=C/c1cnc(N2CCCCC2)s1)c1ccc(Cl)cc1 | inactive |
| CC1(CCc2ccc3c(c2)OCO3)NC(=O)c2ccccc2N1 (configuration not stated) | inconclusive: 31.6 µM [inhibitor, partial curve] |
| CCOC(=O)c1nc(N2CCN(C(=O)OCC)CC2)c2c3c(sc2n1)CCCC3 | inconclusive: 31.6 µM [inhibitor, partial curve] |
| O=C(CSc1nnnn1C1CCCCC1)Nc1ccccc1N1CCOCC1 | inactive |
| N#CC1=C(N)Nc2ncnn2C1c1ccc([N+](=O)[O-])cc1 (configuration not stated) | inconclusive: 39.8 µM [inhibitor, single point] |
| O=C(O)[C@H]1CCCN(CCC=C(c2ccccc2)c2ccccc2)C1 | inactive |
| O=C(CN1CCOCC1)N/N=C/c1ccc(-c2cccc(Cl)c2Cl)o1 | inconclusive: 39.8 µM [inhibitor, single point] |
| CCN(CC)C(=O)c1sc2nc(-c3ccncc3)[nH]c(=O)c2c1C | inconclusive: 17.8 µM [inhibitor, partial curve] |

| SMILES | Potency |
| --- | --- |
| Cc1csc(NC(=O)c2cc3c(C)nn(Cc4ccccc4Cl)c3s2)n1 | inconclusive: 28.2 µM [inhibitor, partial curve] |
| Cc1c(C#N)c(N)nc2c3c(sc12)NC(=O)CC3c1ccc(Cl)cc1 (configuration not stated) | inconclusive: 22.4 µM [inhibitor, partial curve] |
| CCCCc1cc(=O)oc2c(CN(C)C)c(O)c(Cl)cc12 | inconclusive: 3.16 µM [inhibitor, partial curve] |
| Brc1c(-c2ccc3c(c2)OCO3)nc2ncccn12 | inconclusive: 28.2 µM [inhibitor, single point] |
| COc1ccc(NC(=O)c2cc(CN3C(=O)c4ccccc4C3=O)ccc2OC)cn1 | inconclusive: 8.91 µM [inhibitor, partial curve] |
| COc1cc(/C=C2/NC(=O)NC2=O)cc(Br)c1OCc1ccccc1 | inactive |
| O=C(c1ccc(NS(=O)(=O)c2cccs2)cc1)N1CCN(c2ccccc2Cl)CC1 | inactive |
| O=C(NCc1cccs1)c1cnn2cccnc12 | inconclusive: 35.5 µM [inhibitor, single point] |
| c1nc(NC2CCCCCC2)c2[nH]cnc2n1 | inactive |
| COc1cccc(-c2ccc(C#N)c(OC(=O)c3ccc(Cl)cc3)n2)c1 | inconclusive: 31.6 µM [inhibitor, partial curve] |
| CCCc1cc(C(=O)O)c2ccccc2n1 | inconclusive: 39.8 µM [inhibitor, single point] |
| CC/C=C/C(=O)N1CC2(CC(c3cccc(NC(=O)CC)c3)=NO2)C[C@H]1C(N)=O (some centres not stated) | inconclusive: 39.8 µM [inhibitor, single point] |
| O=C1CC(c2ccc(F)cc2)Sc2nc(-c3ccccc3)c(-c3ccccc3)n21 (configuration not stated) | inconclusive: 31.6 µM [inhibitor, partial curve] |
| CCOC(=O)CCc1c(C)n(CC)c2cc(-c3ccccc3OC)nn2c1=O | inconclusive: 28.2 µM [inhibitor, partial curve] |
| CCCCCN1C(C)=CC(=C(C#N)C#N)C=C1C | inconclusive: 35.5 µM [inhibitor, single point] |
| Cc1cc(C(=O)N/N=C/c2ccccn2)n[nH]1 | inconclusive: 28.2 µM [inhibitor, single point] |
| COc1ccc2nc(NC(=O)CSc3nc4ccccc4o3)sc2c1 | inconclusive: 20 µM [inhibitor, partial curve] |
| O=C1C=C(c2ccccc2)OC(=O)C1C(=O)c1ccccc1 (configuration not stated) | inactive |
| COc1ccc(C(=O)C2CCCN(C(=O)Cc3c(C)noc3C)C2)cc1OC (configuration not stated) | inconclusive: 39.8 µM [inhibitor, single point] |
| CC1Cc2ccccc2N1C(=O)c1ccc(N2CCCCC2)c([N+](=O)[O-])c1 (configuration not stated) | inactive |
| CN1CCN(Cc2cc(Cl)c3cccnc3c2OC(=O)c2cccs2)CC1 | inconclusive: 39.8 µM [inhibitor, single point] |
| Fc1ccc(CN2C3=NCCN3c3ccccc32)cc1 | inactive |
| COc1ccc(OCC(=O)Sc2ccc(C)cc2)cc1 | inactive |
